Key:
AR42J tumor cells [1] = assay: Cell uptake and internalization in AR42J tumor cells; assay type: cell-based, rat; details: 1 µM DOTANOC
Method: The well-plates were incubated under standard cell culture conditions for 0.5 h, 2 h or 4 h. […] The total uptake and the internalized fractions were determined using a γ-counter (Perkin Elmer, Wallac Wizard 1480). […] Experiments were performed twice or three times in triplicate. Statistical analysis was performed using a two-way ANOVA with Tukey’s multiple comparisons post-test.

AR42J tumor cells [2] = details: n=1
AR42J tumor cells [3] = assay: Cell uptake and internalization at increasing molar amounts of peptide; assay type: cell-based, rat; details: 2 h
Method: Experiments were performed twice in triplicate.

AR42J tumor cells [4] = assay: Nuclear localization of the radiopeptides; assay type: cell-based, rat; details: 2 h, 2.5 MBq, 125 pmol
Method: The next day, the medium was removed, the tumor cells were washed with PBS (pH 7.4) and 19.5 mL of assay medium was added. The radiopeptides were added in a volume of 0.5 mL (2.5 MBq, 125 pmol) and the tumor cells incubated for 2 h at 37° C. Afterwards, the cells were washed several times with PBS (pH 7.4) to completely remove excess of radiopeptides. Subsequently, the cell nuclei and cytoplasm/membrane fractions were harvested according to the manufacturer’s protocol using the Nucli EZ Prep Nuclei Isolation Kit (Sigma Aldrich, USA). Ice-cold Nuclei EZ lysis buffer (4 mL) were added to each Petri dish to lyse the tumor cells followed by transfer of the cell suspension into Eppendorf tube for centrifugation for 5 min at 500 rcf at 4° C. The supernatant containing cytoplasm/membrane fractions was transferred to a tube for counting activity in a γ-counter. The pellet was resuspended in 4 mL ice-cold Nuclei EZ lysis buffer followed by additional centrifugation for 5 min at 500 rcf at 4° C. […] The measured activity of nuclei and cytoplasm/cell membrane fractions was defined as 100% of the cellular uptake. Nuclear localization was expressed as percentage of total cellular uptake. The collected fractions were stained with 0.4% trypan blue solution and analyzed using a microscope in order to confirm that the nuclei were properly separated from other cell fragments.

## C[C@@H](O)[C@@H]1NC(=O)[C@H](CCCCN)NC(=O)[C@@H](Cc2c[nH]c3ccccc23)NC(=O)[C@H](Cc2ccc(O)cc2)NC(=O)[C@@H](NC(=O)[C@@H](Cc2ccccc2)NC(=O)CN2CCN(CC(=O)O)CCN(CC(=O)O)CCN(CC(=O)O)CC2)CSSC[C@@H](C(=O)N[C@H](CO)[C@@H](C)O)NC1=O [[^161Tb]Tb-DOTATOC] [metal not drawn]
AR42J tumor cells [1]
  cell uptake with excess DOTANOC (SSTR blocking): prevented the cell uptake

## C[C@@H](O)[C@@H]1NC(=O)[C@H](CCCCN)NC(=O)[C@@H](Cc2c[nH]c3ccccc23)NC(=O)[C@H](Cc2ccc(O)cc2)NC(=O)[C@@H](NC(=O)[C@@H](Cc2ccccc2)NC(=O)CN2CCN(CC(=O)O)CCN(CC(=O)O)CCN(CC(=O)O)CC2)CSSC[C@@H](C(=O)N[C@H](CO)[C@@H](C)O)NC1=O [[^177Lu]Lu-DOTATOC] [metal not drawn]
AR42J tumor cells [2]
  activity concentration for similar effect (<3% survival): 5 MBq/mL
AR42J tumor cells [3]; 1.5 pmol peptide
  decrease of uptake (and internalization): ~ 30%
AR42J tumor cells [3]; 7.5 pmol peptide
  decrease of uptake (and internalization): ~ 30%
AR42J tumor cells [3]; 75 pmol peptide
  decrease of uptake (and internalization): ~ 90%
AR42J tumor cells [4]
  nuclear uptake: < 1 % of total cellular uptake
AR42J tumor cells [1]
  cell uptake with excess DOTANOC (SSTR blocking): prevented the cell uptake

Reference: patent US20230165981A1, “[161Tb]-BASED RADIOPEPTIDES” (priority 2021, published 2023)
